The campaign covered roughly 310,000 compounds. About 2,200 (0.71%) showed an effect of 50% or more. The effect is printed as a negative number. The list shows a part of the results.
These compounds were tested against human ether-à-go-go-related gene (hERG) potassium channel (human, UniProt Q12809) (assay: primary screen, population patch clamp on CHO cells stably expressing hERG).
human ether-à-go-go-related gene (hERG) potassium channel, sequence (Q12809 whole entry, looked up): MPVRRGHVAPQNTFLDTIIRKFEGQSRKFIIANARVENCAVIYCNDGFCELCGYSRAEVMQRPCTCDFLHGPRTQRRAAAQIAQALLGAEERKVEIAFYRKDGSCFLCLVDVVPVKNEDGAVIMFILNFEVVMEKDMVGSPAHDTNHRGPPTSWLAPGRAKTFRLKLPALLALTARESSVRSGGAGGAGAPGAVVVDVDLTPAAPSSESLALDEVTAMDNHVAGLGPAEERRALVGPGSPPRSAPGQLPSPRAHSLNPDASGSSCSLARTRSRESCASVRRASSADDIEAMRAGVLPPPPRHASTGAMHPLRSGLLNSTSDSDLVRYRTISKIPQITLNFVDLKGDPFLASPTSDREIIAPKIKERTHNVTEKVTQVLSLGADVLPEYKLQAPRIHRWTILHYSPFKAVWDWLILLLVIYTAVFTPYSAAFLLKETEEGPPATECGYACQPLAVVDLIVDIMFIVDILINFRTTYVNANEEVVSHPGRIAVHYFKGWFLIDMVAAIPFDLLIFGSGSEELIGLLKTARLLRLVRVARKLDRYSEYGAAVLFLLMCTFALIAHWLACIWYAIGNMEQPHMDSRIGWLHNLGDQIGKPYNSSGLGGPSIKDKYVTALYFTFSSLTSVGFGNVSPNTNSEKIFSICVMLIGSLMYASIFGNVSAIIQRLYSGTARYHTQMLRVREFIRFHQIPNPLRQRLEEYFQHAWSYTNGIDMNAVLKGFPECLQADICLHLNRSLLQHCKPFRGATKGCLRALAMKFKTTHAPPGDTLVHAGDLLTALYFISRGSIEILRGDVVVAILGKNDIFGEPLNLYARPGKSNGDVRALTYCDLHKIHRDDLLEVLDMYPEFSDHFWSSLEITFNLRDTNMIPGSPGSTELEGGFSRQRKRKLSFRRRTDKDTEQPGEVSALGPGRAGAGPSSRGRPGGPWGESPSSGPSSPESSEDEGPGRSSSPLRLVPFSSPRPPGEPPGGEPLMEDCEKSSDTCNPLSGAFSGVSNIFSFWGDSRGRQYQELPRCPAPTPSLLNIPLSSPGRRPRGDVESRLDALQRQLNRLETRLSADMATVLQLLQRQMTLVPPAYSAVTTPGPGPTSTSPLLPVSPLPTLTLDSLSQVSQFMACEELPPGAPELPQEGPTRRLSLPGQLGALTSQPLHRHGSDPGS

Structure (SMILES) | hERG current change (%, negative = inhibition) at 1uM [%]
O=C(O)CCN1C(=O)/C(=C/c2ccc(-c3nc4ccccc4s3)o2)SC1=S | -0.496
Cc1cc(C(=O)OC(C)C(=O)Nc2nc(-c3ccccc3)cs2)c(C)o1 (centres unmarked) | 6.93
O=C(Nc1nc2c(F)cccc2s1)c1ccc([N+](=O)[O-])o1 | 17.2
COC(=O)c1ccc(CSc2nc(C(F)F)cc(C)c2C#N)o1 | 10.4
COc1cc(N=Nc2cccc(S(N)(=O)=O)c2)c2ccccc2c1N | 13.9
O=C(CCn1c(=O)oc2ccccc21)NCCCN1CCCC1=O | 8.38
Cc1ccc(NC(=O)Cc2ccccc2)c(C)c1 | 14.3
COc1ccccc1S(=O)(=O)NCc1ccc(C(=O)NC2CCC(O)CC2)cc1 (centres unmarked) | 6.97
CC(OC(=O)/C=C/c1ccccc1)C(=O)Nc1cccc(C#N)c1 (centres unmarked) | 4.87
CCc1c(C#N)c(N)nc(SCC(=O)OCc2ccccc2)c1C#N | 10.2
CSc1cccc(NC(=O)CN(Cc2ccc(Cl)cc2)S(C)(=O)=O)c1 | -5.52
O=C(NCCc1ccncc1)c1ccccc1F | 9.09
COc1ccc(NC(=O)NNC(=O)c2ccc3ccccc3c2O)cc1OC | 16.5
Cc1c(O)nc2ccccn2c1=O | 1.21
COc1ccc(N2CCN(C(=O)COC(=O)CCOc3ccc(C)cc3)CC2)cc1 | 11.6
Cc1c(Br)c([N+](=O)[O-])nn1CC(=O)Nc1ccccn1 | 2
COc1cccc2sc(N)nc12 | 8.85
CC(C)NC(=O)C1CCN(C(=O)C(C(=O)c2ccccc2)n2cc(Cl)ccc2=O)CC1 (centres unmarked) | 9.46
CCN(CC)C(=O)CN(C#N)c1nc(NC(C)C)nc(NC(C)C)n1 | 10.5
CCOC(=O)c1cc(-c2ccccc2)sc1NC(=O)CN1C(=O)c2ccccc2C1=O | 10
C#CCNC(=O)C1=C[C@@H](c2ccc(Br)cc2)C[C@@H](OCc2ccc(CO)cc2)O1 | 16.4
Cc1cc(C(=O)NC(C)CCc2ccccc2)ccc1[N+](=O)[O-] (centres unmarked) | 11.2
CCN(Cc1ccccc1)C(=O)c1cccc(S(=O)(=O)N2CCN(c3ccccc3)CC2)c1 | -7.63

Structure (SMILES) | hERG current change (%, negative = inhibition) at 1uM [%]
CCCCn1c(N)c(N(CCOC)C(=O)CSc2ccccc2C)c(=O)[nH]c1=O | 4.8
COC(=O)c1c(NC(=O)C2CCCO2)sc2c1CCC2 (centres unmarked) | 8.99
Nc1c2c(nc3ccc(Br)cc13)N(Cc1ccccc1)CC2 | 2.31
Cc1nc(Nc2ccc(S(=O)(=O)N3CCCC3)cc2)c2nnn(Cc3ccccc3)c2n1 | 15.9
COc1ccc(/C=C2\C(=O)ON=C2c2ccccc2)cc1OC | 9.99
COc1ccc(-c2nnc(SCC(=O)Nc3ccccc3OC)o2)cc1 | 7.91
CCOC(=O)CSc1ccc2nnc(-c3cccnc3)n2n1 | -0.888
Cc1c(Cl)c([N+](=O)[O-])nn1CC(=O)Nc1ccc2c(c1)OCO2 | 21.5
CCn1cc(S(=O)(=O)CC(=O)NC2CCCCC2)c2ccccc21 | 14.5
CCCCn1c(N)c(N(CC)C(=O)c2cccc(S(=O)(=O)N3CCN(C)CC3)c2)c(=O)[nH]c1=O | 13.8
COc1ccc2c(c1)c(/C=N/Nc1nc3ccccc3[nH]1)c(C)n2C | 10.8
Cc1ccc(S(=O)(=O)N2CCOC23CCN(C(=O)C(=O)NCCC(C)C)CC3)cc1 | 4.48
CCn1ccnc1CNC(=O)CC1C(=O)NCCN1CC(c1ccccc1)c1ccccc1 (centres unmarked) | 8.81
Cc1ccc(NC(=O)CC(=O)c2ccc([N+](=O)[O-])cc2)cc1S(=O)(=O)Nc1cccc(Cl)c1 | 6.52
Cc1ccc(Nc2nc3nonc3[nH]c2=O)cc1Cl | 15.8
O=C(COC(=O)c1ccc(Cl)c(Cl)c1)NC1CCCC1 | 16.8
COC(=O)c1cc(N=CC2=C(O)CC(C)(C)CC2=O)cc(C(=O)OC)c1 | 7.19
Cc1cccc(NC(=O)CCc2nnc3ccc(NCc4ccco4)nn23)n1 | 12.6
CCOc1ccc(C(=S)N2CCOCC2)cc1 | 5.79
Cc1cc(C(=O)N/N=C/c2ccc(-c3ccccc3Cl)o2)n[nH]1 | 1.12
Cc1ccc(NC(=O)Cn2c(=O)n(CCCC(=O)NCc3ccco3)c(=O)c3ccccc32)cc1 | 1.54
O=C(Nc1ccc(N2CCOCC2)cc1N1CCOCC1)c1cccs1 | 13.4
Cc1ccc(Cl)cc1N(CC(=O)NC1CCCCC1)S(C)(=O)=O | 13.4

Structure (SMILES) | hERG current change (%, negative = inhibition) at 1uM [%]
CCOc1ccc(NC(=O)CSc2ncc(-c3ccc(F)cc3)n2Cc2ccco2)cc1 | 8.18
O=C(COC(=O)CN1C(=O)C2CC=CCC2C1=O)Nc1cc(C(F)(F)F)ccc1N1CCOCC1 (centres unmarked) | -0.0496
O=C(/C=C/C(=O)N1CCc2ccccc2C1)N1CCc2ccccc2C1 | -3.15
CCOc1ccccc1/C=C(\NC(=O)c1ccccc1)C(=O)NCCC(=O)O | 3.06
COC(=O)C1=C(c2ccc(F)cc2OCc2ccccc2)C[C@@H]2CC[C@H]1N2C(=O)N1CCCC1 | 7.01
CC(C)(C)n1nnnc1SCC(=O)Nc1nn(-c2ccccc2)nc1C(N)=O | 0.356
CCOC(=O)COc1ccccc1-c1ccno1 | 4.52
COc1ccc(N(C(=O)CCl)C(C(=O)NCCc2ccccc2)c2cccs2)cc1 (centres unmarked) | -2.86
COc1ccc(N=C2C(=O)N3CCCc4cccc2c43)cc1 | -3.11
O=C(NNc1ncnc2c1cnn2-c1cccc(Cl)c1)c1ccco1 | 14.4
CC(=O)c1cnc2n(c1=O)CCS2 | 15.5
C/C(=N\N=C1\NC(=O)C(CC(=O)NCc2ccccc2)S1)C(C)C (centres unmarked) | 11.7
O=C(C[n+]1cccc(O)c1)Nc1ccc(Br)cc1.O=S(=O)([O-])c1ccc2ccccc2c1 | 14.4
COC(=O)[C@H](CCSC)NC(=O)Nc1ccc(OC)cc1OC | 6.47
CCOc1ccc(/C=N/n2nnnc2N)cc1OCC | 11.2
Cc1ccccc1CC(=O)Nc1sc(C(C)C)cc1C(=O)N1CCOCC1 | 2.93
COc1cc(CC(NC(C)=O)C(=O)NC2CCN(c3c(Cc4ccccc4)c(C)nc4ncnn34)CC2)cc(OC)c1 (centres unmarked) | 14.3
Cc1cc(=O)[nH]c2c(C)cc(S(=O)(=O)N3CCOCC3)cc12 | 12
COC(=O)C1=C(C)N(CCc2ccc(OC)c(OC)c2)C(=O)/C1=C\N(C)C | 5.97
Cc1cc2c(ccc3[nH]onc32)n1 | 16.3
CC(C)Oc1ccccc1/C=N/n1nnnc1N | 10.6
COC(=O)CCCCC1SCC2NC(=O)NC21O (centres unmarked) | 11.4
O=C(Nc1cccnc1)c1cccnc1 | 16.4

Structure (SMILES) | hERG current change (%, negative = inhibition) at 1uM [%]
CSc1nnc2n(-c3ccccc3)c(=O)c3c4c(sc3n12)CCC4 | -2.71
CC1CCN(Cc2ccc(-c3nn[nH]n3)cc2)CC1 | 20.5
CNc1nc(-c2ccc(Cl)cc2)cs1 | 11.2
CC(C)(C)NS(=O)(=O)c1ccc(NC(=O)C2CC(=O)N(CCc3ccc(F)cc3)C2)cc1 (centres unmarked) | 8.69
O=C(O)c1cc2nccc(-c3ccco3)n2n1 | 8.26
O=C1c2oc3ccc(Br)cc3c(=O)c2C(c2cccc(F)c2)N1CCO (centres unmarked) | 13
O=C(COC(=O)Cc1cn2ccsc2n1)Nc1nc2ccccc2s1 | 11.5
CCCCNC(=S)N/N=C/c1cc(C)ccc1C | 2.76
C[C@]12CCC3c4ccc(OCC(=O)O)cc4CCC3C1CCC2=O (some centres unmarked) | 12.9
OCCC1CN(Cc2cc(F)ccc2-n2cccn2)CCN1Cc1ccc(F)cc1 (centres unmarked) | -36.9
CC(C)(C)c1ccc(C2C(C(=O)c3ccco3)=C(O)C(=O)N2CC2CCCO2)cc1 (centres unmarked) | 15.1
CC(C)c1ccc(NC(=O)C(c2ccccc2)N2CCN(C(=O)c3ccco3)CC2)cc1 (centres unmarked) | 11.3
CC(=O)c1cccc(NC(=O)c2ccc3c(=O)n4c(nc3c2)CCCCC4)c1 | -39.1
CC(=O)c1ccc(OCC(O)CN2CCN(Cc3ccc4c(c3)OCO4)CC2)cc1 (centres unmarked) | -12
COCCNC(=S)NNC(=O)c1ccco1 | 0.561
CC(=O)Nc1ccc(N2CCN(Cc3ccccc3)CC2)cc1 | 2.6
COc1ccc(C(=O)CCC(=O)NCc2cc(OC)cc(OC)c2)cc1 | 23.4
Cc1ccnc(NS(=O)(=O)c2ccc(NC(=O)CN3C(=O)CCC3=O)cc2)n1 | 4.33
CCN1CCc2nc(NC(=O)c3ccc4c(c3)OCCO4)sc2C1 | 6.09
CCN(CC)C(=O)c1ccc(S(=O)(=O)c2ccccc2)cc1 | 16.8
